This is one part of the list. The list includes weakly bound sequences.
The sequences below were run against T1, MBP-FoxP3dN (UniProt Q99JB6) (assay: PD-seq (MBP pull-down with sequencing)). Settings: 20 mM Tris-HCl pH 7.5, 100 mM NaCl, 1.5 mM MgCl2, 0.4 uM protein, 0.1 uM dsDNA library, 30 min, room temperature, amylose pull-down; high values mean tight binding; double strand, one strand shown.
T1 sequence: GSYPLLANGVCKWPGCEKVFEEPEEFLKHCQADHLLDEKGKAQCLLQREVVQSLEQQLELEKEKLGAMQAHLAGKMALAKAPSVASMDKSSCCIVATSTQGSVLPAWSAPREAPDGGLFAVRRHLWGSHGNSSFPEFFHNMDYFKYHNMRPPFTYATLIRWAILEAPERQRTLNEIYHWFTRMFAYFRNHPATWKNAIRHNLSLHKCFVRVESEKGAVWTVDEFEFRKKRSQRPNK

Sequence | binding signal (RPM ratio (pull-down/input))
GATGATTGTTCTCCCAGCTGATGAATTGAAACCCTCGAGTAAACAAATTTTCCTAATCTTTCTGTTCAAGCGCCATCTAC | 0.235
GATGATTGTTCTCCCAGCTGATGAATTGAGAGTGTCGAGTAAACAAATTTTCCTAATCTTTCTGTTCAAGCGCCATCTAC | 0.963
GATGATTGTTCTCCCAGCTGATGAATTTAGTGACTCGAGTAAACAAATTTTCCTAATCTTTCTGTTCAAGCGCCATCTAC | 1.59
GATGATTGTTCTCCCAGCTGATGAATTTGCGTACTCGAGTAAACAAATTTTCCTAATCTTTCTGTTCAAGCGCCATCTAC | 4.57
GATGATTGTTCTCCCAGCTGATGAATTCGGCCCATCGAGTAAACAAATTTTCCTAATCTTTCTGTTCAAGCGCCATCTAC | 0.889
GATGATTGTTCTCCCAGCTGATGAATTCGATAGGTCGAGTAAACAAATTTTCCTAATCTTTCTGTTCAAGCGCCATCTAC | 0.624
GATGATTGTTCTCCCAGCTGATGAATTGTGCCTGTCGAGTAAACAAATTTTCCTAATCTTTCTGTTCAAGCGCCATCTAC | 6.42
GATGATTGTTCTCCCAGCTGATGAATTCTTCTTTTCGAGTAAACAAATTTTCCTAATCTTTCTGTTCAAGCGCCATCTAC | 0.26
GATGATTGTTCTCCCAGCTGATGAATTGTAAGACTCGAGTAAACAAATTTTCCTAATCTTTCTGTTCAAGCGCCATCTAC | 0.374
GATGATTGTTCTCCCAGCTGATGAATTGGTGTACTCGAGTAAACAAATTTTCCTAATCTTTCTGTTCAAGCGCCATCTAC | 3.3
GATGATTGTTCTCCCAGCTGATGAATTTTGAACATCGAGTAAACAAATTTTCCTAATCTTTCTGTTCAAGCGCCATCTAC | 0.498
GATGATTGTTCTCCCAGCTGATGAATTAGCTGTCTCGAGTAAACAAATTTTCCTAATCTTTCTGTTCAAGCGCCATCTAC | 2.44
GATGATTGTTCTCCCAGCTGATGAATTCGTGAGCTCGAGTAAACAAATTTTCCTAATCTTTCTGTTCAAGCGCCATCTAC | 0.432
GATGATTGTTCTCCCAGCTGATGAATTACAGTCATCGAGTAAACAAATTTTCCTAATCTTTCTGTTCAAGCGCCATCTAC | 0.774
GATGATTGTTCTCCCAGCTGATGAATTTTTGCCATCGAGTAAACAAATTTTCCTAATCTTTCTGTTCAAGCGCCATCTAC | 3.09
GATGATTGTTCTCCCAGCTGATGAATTTCGGGTGTCGAGTAAACAAATTTTCCTAATCTTTCTGTTCAAGCGCCATCTAC | 0.707
GATGATTGTTCTCCCAGCTGATGAATTTGCCCCTTCGAGTAAACAAATTTTCCTAATCTTTCTGTTCAAGCGCCATCTAC | 0.503
GATGATTGTTCTCCCAGCTGATGAATTGTTAGAGTCGAGTAAACAAATTTTCCTAATCTTTCTGTTCAAGCGCCATCTAC | 0.504
GATGATTGTTCTCCCAGCTGATGAATTATTCGGCTCGAGTAAACAAATTTTCCTAATCTTTCTGTTCAAGCGCCATCTAC | 0.27
GATGATTGTTCTCCCAGCTGATGAATTACAATAATCGAGTAAACAAATTTTCCTAATCTTTCTGTTCAAGCGCCATCTAC | 0.672
GATGATTGTTCTCCCAGCTGATGAATTGCAAGGGTCGAGTAAACAAATTTTCCTAATCTTTCTGTTCAAGCGCCATCTAC | 0.919

Sequence | binding signal (RPM ratio (pull-down/input))
GATGATTGTTCTCCCAGCTGATGAATTATTCCTATCGAGTAAACAAATTTTCCTAATCTTTCTGTTCAAGCGCCATCTAC | 0.365
GATGATTGTTCTCCCAGCTGATGAATTACATCCATCGAGTAAACAAATTTTCCTAATCTTTCTGTTCAAGCGCCATCTAC | 0.517
GATGATTGTTCTCCCAGCTGATGAATTTCGGCCGTCGAGTAAACAAATTTTCCTAATCTTTCTGTTCAAGCGCCATCTAC | 0.39
GATGATTGTTCTCCCAGCTGATGAATTCTGAGGATCGAGTAAACAAATTTTCCTAATCTTTCTGTTCAAGCGCCATCTAC | 0.283
GATGATTGTTCTCCCAGCTGATGAATTACCGGCCTCGAGTAAACAAATTTTCCTAATCTTTCTGTTCAAGCGCCATCTAC | 0.378
GATGATTGTTCTCCCAGCTGATGAATTAAATCCATCGAGTAAACAAATTTTCCTAATCTTTCTGTTCAAGCGCCATCTAC | 0.257
GATGATTGTTCTCCCAGCTGATGAATTCTACCTTTCGAGTAAACAAATTTTCCTAATCTTTCTGTTCAAGCGCCATCTAC | 0.358
GATGATTGTTCTCCCAGCTGATGAATTTATATCGTCGAGTAAACAAATTTTCCTAATCTTTCTGTTCAAGCGCCATCTAC | 1.4
GATGATTGTTCTCCCAGCTGATGAATTCGCCCCATCGAGTAAACAAATTTTCCTAATCTTTCTGTTCAAGCGCCATCTAC | 0.38
GATGATTGTTCTCCCAGCTGATGAATTCCAAGCTTCGAGTAAACAAATTTTCCTAATCTTTCTGTTCAAGCGCCATCTAC | 0.312
GATGATTGTTCTCCCAGCTGATGAATTTTGCCTCTCGAGTAAACAAATTTTCCTAATCTTTCTGTTCAAGCGCCATCTAC | 5.78
GATGATTGTTCTCCCAGCTGATGAATTCCGCGTCTCGAGTAAACAAATTTTCCTAATCTTTCTGTTCAAGCGCCATCTAC | 4.65
GATGATTGTTCTCCCAGCTGATGAATTGTTTAAGTCGAGTAAACAAATTTTCCTAATCTTTCTGTTCAAGCGCCATCTAC | 0.721
GATGATTGTTCTCCCAGCTGATGAATTGTCGACATCGAGTAAACAAATTTTCCTAATCTTTCTGTTCAAGCGCCATCTAC | 0.63
GATGATTGTTCTCCCAGCTGATGAATTCCAGTTTTCGAGTAAACAAATTTTCCTAATCTTTCTGTTCAAGCGCCATCTAC | 0.472
GATGATTGTTCTCCCAGCTGATGAATTAGGTCGGTCGAGTAAACAAATTTTCCTAATCTTTCTGTTCAAGCGCCATCTAC | 0.28
GATGATTGTTCTCCCAGCTGATGAATTATGTCCGTCGAGTAAACAAATTTTCCTAATCTTTCTGTTCAAGCGCCATCTAC | 0.701
GATGATTGTTCTCCCAGCTGATGAATTCCTGGCATCGAGTAAACAAATTTTCCTAATCTTTCTGTTCAAGCGCCATCTAC | 0.591
GATGATTGTTCTCCCAGCTGATGAATTGCTCCTTTCGAGTAAACAAATTTTCCTAATCTTTCTGTTCAAGCGCCATCTAC | 0.512
GATGATTGTTCTCCCAGCTGATGAATTAGGGACGTCGAGTAAACAAATTTTCCTAATCTTTCTGTTCAAGCGCCATCTAC | 0.349
GATGATTGTTCTCCCAGCTGATGAATTTTTGAATTCGAGTAAACAAATTTTCCTAATCTTTCTGTTCAAGCGCCATCTAC | 0.72

Sequence | binding signal (RPM ratio (pull-down/input))
GATGATTGTTCTCCCAGCTGATGAATTCCTCCACTCGAGTAAACAAATTTTCCTAATCTTTCTGTTCAAGCGCCATCTAC | 0.236
GATGATTGTTCTCCCAGCTGATGAATTGTTCCGATCGAGTAAACAAATTTTCCTAATCTTTCTGTTCAAGCGCCATCTAC | 0.273
GATGATTGTTCTCCCAGCTGATGAATTGCGCGTTTCGAGTAAACAAATTTTCCTAATCTTTCTGTTCAAGCGCCATCTAC | 4.39
GATGATTGTTCTCCCAGCTGATGAATTAACAAACTCGAGTAAACAAATTTTCCTAATCTTTCTGTTCAAGCGCCATCTAC | 0.55
GATGATTGTTCTCCCAGCTGATGAATTCGTAGTATCGAGTAAACAAATTTTCCTAATCTTTCTGTTCAAGCGCCATCTAC | 1.47
GATGATTGTTCTCCCAGCTGATGAATTAAGTTTATCGAGTAAACAAATTTTCCTAATCTTTCTGTTCAAGCGCCATCTAC | 4.24
GATGATTGTTCTCCCAGCTGATGAATTCCATCCGTCGAGTAAACAAATTTTCCTAATCTTTCTGTTCAAGCGCCATCTAC | 0.314
GATGATTGTTCTCCCAGCTGATGAATTGACCTGATCGAGTAAACAAATTTTCCTAATCTTTCTGTTCAAGCGCCATCTAC | 0.249
GATGATTGTTCTCCCAGCTGATGAATTCAGACCATCGAGTAAACAAATTTTCCTAATCTTTCTGTTCAAGCGCCATCTAC | 0.403
GATGATTGTTCTCCCAGCTGATGAATTGGAGGCTTCGAGTAAACAAATTTTCCTAATCTTTCTGTTCAAGCGCCATCTAC | 0.596
GATGATTGTTCTCCCAGCTGATGAATTGGGCAGGTCGAGTAAACAAATTTTCCTAATCTTTCTGTTCAAGCGCCATCTAC | 0.479
GATGATTGTTCTCCCAGCTGATGAATTGCGGATTTCGAGTAAACAAATTTTCCTAATCTTTCTGTTCAAGCGCCATCTAC | 0.749
GATGATTGTTCTCCCAGCTGATGAATTCTCATGTTCGAGTAAACAAATTTTCCTAATCTTTCTGTTCAAGCGCCATCTAC | 0.416
GATGATTGTTCTCCCAGCTGATGAATTTCTGACATCGAGTAAACAAATTTTCCTAATCTTTCTGTTCAAGCGCCATCTAC | 0.411
GATGATTGTTCTCCCAGCTGATGAATTTATCGGTTCGAGTAAACAAATTTTCCTAATCTTTCTGTTCAAGCGCCATCTAC | 0.825
GATGATTGTTCTCCCAGCTGATGAATTTATCGTGTCGAGTAAACAAATTTTCCTAATCTTTCTGTTCAAGCGCCATCTAC | 2.63
GATGATTGTTCTCCCAGCTGATGAATTGCTTCACTCGAGTAAACAAATTTTCCTAATCTTTCTGTTCAAGCGCCATCTAC | 0.53
GATGATTGTTCTCCCAGCTGATGAATTAGATTTTTCGAGTAAACAAATTTTCCTAATCTTTCTGTTCAAGCGCCATCTAC | 0.874
GATGATTGTTCTCCCAGCTGATGAATTGAGAATATCGAGTAAACAAATTTTCCTAATCTTTCTGTTCAAGCGCCATCTAC | 0.432
GATGATTGTTCTCCCAGCTGATGAATTGAGAGCTTCGAGTAAACAAATTTTCCTAATCTTTCTGTTCAAGCGCCATCTAC | 0.31
GATGATTGTTCTCCCAGCTGATGAATTGTTAGACTCGAGTAAACAAATTTTCCTAATCTTTCTGTTCAAGCGCCATCTAC | 0.492
